Reference: the supplement of paper PMC7826260
This is one part of the list. Cleavage of a single-stranded DNA pool by Rep nickase domains was read by sequencing (3 µM enzyme, 1 h, 37 °C); shown is the middle of each 90-letter strand. The score is log2 (uncut reads / reads without enzyme); uncut sequences lie near 0, cut ones below; no hit call is given. Reads are scaled to the total; values above 0 arise when much of the pool is cut.

Legend:
Test in all cases: uncleaved DNA left, log2 of reads against the no-enzyme library (log2 ratio); higher = less cleavage (more negative = more Rep cleavage of the k-mer); sequences stand for … in CTCGTCCG…ACCGGAGA
[1] = system: T1, Rep nickase domain of Muscovy duck circovirus
T1 sequence (residues 1-111 of Rep, tag left off): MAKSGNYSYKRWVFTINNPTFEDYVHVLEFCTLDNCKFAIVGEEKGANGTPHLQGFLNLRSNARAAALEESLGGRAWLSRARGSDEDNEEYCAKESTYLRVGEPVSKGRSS
Method: (§1)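 A pool of 90-nt single-stranded DNAs with seven random bases just before the constant AC of the nick site (name = the seven bases) was cut by 3 µM recombinant His6-SUMO-tagged Rep nickase domain (300 nM DNA, 50 mM HEPES pH 8.0, 50 mM NaCl, 1 mM MnCl2, 1 h, 37 °C, three replicates). Uncut DNA was amplified and sequenced.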

[2] = system: T2, Rep nickase domain of banana bunchy top virus
T2 sequence (residues 1-94 of Rep, tag left off): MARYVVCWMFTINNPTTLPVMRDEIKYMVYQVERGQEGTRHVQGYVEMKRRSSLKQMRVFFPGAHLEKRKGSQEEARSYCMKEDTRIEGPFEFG
Method: as §1

[3] = system: T3, Rep nickase domain of cabbage leaf curl virus
T3 sequence (residues 1-116 of Rep, tag left off): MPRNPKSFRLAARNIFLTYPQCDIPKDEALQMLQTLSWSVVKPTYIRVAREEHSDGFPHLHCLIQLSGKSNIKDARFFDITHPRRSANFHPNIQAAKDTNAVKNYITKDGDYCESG
Method: as §1

[4] = system: T4, Rep nickase domain of chickpea chlorotic dwarf virus
T4 sequence (residues 1-124 of Rep, tag left off): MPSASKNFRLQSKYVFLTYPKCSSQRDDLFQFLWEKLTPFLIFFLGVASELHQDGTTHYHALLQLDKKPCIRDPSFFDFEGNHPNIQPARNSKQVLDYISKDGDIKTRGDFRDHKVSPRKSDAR
Method: as §1

[5] = system: T5, Rep nickase domain of faba bean necrotic yellows virus
T5 sequence (residues 1-98 of Rep, tag left off): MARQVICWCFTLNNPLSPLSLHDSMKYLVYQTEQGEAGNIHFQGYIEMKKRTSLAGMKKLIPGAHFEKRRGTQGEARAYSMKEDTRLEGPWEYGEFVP
Method: as §1

[6] = system: T6, Rep nickase domain of maize striate mosaic virus
T6 sequence (residues 1-117 of Rep, tag left off): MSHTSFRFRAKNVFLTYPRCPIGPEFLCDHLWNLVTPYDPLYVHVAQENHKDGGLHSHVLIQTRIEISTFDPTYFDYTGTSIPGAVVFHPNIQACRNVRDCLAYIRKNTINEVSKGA
Method: as §1

[7] = system: T7, Rep nickase domain of porcine circovirus 2
T7 sequence (residues 2-116 of Rep, tag left off): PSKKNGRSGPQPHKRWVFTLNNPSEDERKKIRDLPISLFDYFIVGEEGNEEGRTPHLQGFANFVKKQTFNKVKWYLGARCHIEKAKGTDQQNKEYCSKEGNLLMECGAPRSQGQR
Method: as §1

[8] = system: T8, Rep nickase domain of tomato golden mosaic virus
T8 sequence (residues 1-124 of Rep, tag left off): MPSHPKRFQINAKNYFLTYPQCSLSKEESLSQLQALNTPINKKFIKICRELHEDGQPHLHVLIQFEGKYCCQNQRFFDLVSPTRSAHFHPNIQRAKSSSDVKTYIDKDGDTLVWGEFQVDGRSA
Method: as §1

[9] = system: T9, Rep nickase domain of tomato yellow leaf curl virus
T9 sequence (residues 1-136 of Rep, tag left off): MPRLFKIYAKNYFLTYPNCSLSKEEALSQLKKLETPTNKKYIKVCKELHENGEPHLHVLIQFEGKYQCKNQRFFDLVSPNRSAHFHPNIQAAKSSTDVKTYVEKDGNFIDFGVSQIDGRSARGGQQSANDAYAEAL
Method: as §1

[10] = system: T10, Rep nickase domain of wheat dwarf virus
T10 sequence (residues 1-137 of Rep, tag left off): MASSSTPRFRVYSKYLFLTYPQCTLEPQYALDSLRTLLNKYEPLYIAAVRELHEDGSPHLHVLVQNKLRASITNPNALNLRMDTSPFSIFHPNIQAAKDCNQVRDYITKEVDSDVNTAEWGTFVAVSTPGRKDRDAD
Method: as §1

Row | Sequence | uncleaved DNA left (log2) [1] | uncleaved DNA left (log2) [2] | uncleaved DNA left (log2) [3] | uncleaved DNA left (log2) [4] | uncleaved DNA left (log2) [5] | uncleaved DNA left (log2) [6] | uncleaved DNA left (log2) [7] | uncleaved DNA left (log2) [8] | uncleaved DNA left (log2) [9] | uncleaved DNA left (log2) [10]
1 | AGTCCAA | 0.104 | 0.118 | 0.332 | 0.59 | 0.0515 | 0.14 | -0.984 | 0.098 | 0.08 | 0.261
2 | CCGGATG | -0.111 | 0.0884 | 0.0688 | 0.378 | 0.179 | 0.564 | 0.0862 | 0.0923 | -0.0712 | 0.0935
3 | TGTAGCT | 0.00412 | 0.0629 | -0.124 | -0.839 | 0.0111 | -0.681 | -0.119 | -0.0181 | 0.0145 | -0.0962
4 | CGCACAT | 0.0952 | -0.074 | 0.403 | 0.77 | -0.118 | 1.07 | 0.105 | -0.185 | 0.0681 | 0.0968
5 | AGAGGCC | -0.0734 | -0.088 | 0.114 | 0.443 | -0.0666 | 0.132 | -0.101 | -0.0627 | -0.114 | -0.17
6 | CGAACAT | -0.0306 | 0.0443 | 0.434 | 1.17 | -0.0294 | 1.39 | 0.154 | -0.0449 | 0.108 | 0.182
7 | CACTATT | -3.77 | -3.64 | -3.39 | -3.2 | -2.66 | -1.74 | -4.63 | -2.91 | -0.0585 | -1.62
8 | TACCCCC | -0.112 | -0.134 | -0.105 | -1.63 | -0.0822 | -0.349 | -1.22 | -0.268 | -0.0598 | -0.0963
9 | TCTCTTC | -0.136 | -0.198 | 0.173 | -0.393 | -0.149 | -0.527 | -0.0945 | -0.156 | -0.227 | -0.0575
10 | AGTGGAC | 0.0749 | 0.0973 | 0.699 | 1.84 | 0.0454 | 2.07 | 0.254 | 0.0944 | 0.139 | 0.117
11 | CATTGTG | -0.0386 | -0.178 | 0.215 | 1.38 | -0.117 | 1.42 | 0.0841 | -0.071 | 0.0922 | -0.127
12 | CTAGACT | -0.12 | -0.156 | -0.131 | -0.983 | 0.0945 | 0.685 | -0.272 | -0.205 | -0.118 | -0.107
13 | GATTGGC | 0.0647 | 0.0318 | -0.0966 | 0.0178 | 0.0377 | -0.676 | 0.103 | -0.00277 | 0.131 | 0.0166
14 | CGAGCTA | 0.00886 | 0.0182 | -0.465 | -0.0784 | -0.0372 | 0.24 | -1 | -0.0354 | -0.114 | 0.0104
15 | GCAGCCA | 0.147 | 0.0931 | 0.00392 | -0.274 | -0.0244 | -0.121 | 0.0729 | 0.099 | 0.0958 | 0.0359
